Laboratory results from the supplement of paper PMC8728848.
The other results are listed elsewhere or left out.

Experiments:
Experiment in all cases: glycan array binding signal (z-score within array); higher = stronger binding
Conditions in all cases: glycan notation: IUPAC condensed, linker removed
[1] = biological target: Gal(b1-3)[Fuc(a1-4)]GlcNAc(b1-3)Gal(b1-4)[Fuc(a1-3)]GlcNAc
Method in brief: (§1)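 Arrays were curated from the Consortium for Functional Glycomics database, 3228 in total, and kept only where the protein sequence was available. Binding is expressed as a within-array Z-score. This score was averaged across arrays of the same protein sequence at different concentrations or buffers and across linkers, and negative values can be read as non-binding.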

[2] = biological target: Gal(b1-3)[Fuc(a1-4)]GlcNAc(b1-6)GalNAc
Method in brief: as §1

[3] = biological target: Gal(b1-3)[GlcNAc(b1-6)]GalNAc
Method in brief: as §1

[4] = biological target: Gal(b1-3)[Neu5Ac(a2-6)]GalNAc
Method in brief: as §1

[5] = biological target: Gal(b1-3)[Neu5Ac(a2-6)]GlcNAc(b1-4)Gal(b1-4)Glc
Method in brief: as §1

[6] = biological target: Gal(b1-3)[Neu5Ac(b2-6)]GalNAc
Method in brief: as §1

[7] = biological target: Gal(b1-4)Gal
Method in brief: as §1

[8] = biological target: Gal(b1-4)GalNAc(a1-3)[Fuc(a1-2)]Gal(b1-4)GlcNAc
Method in brief: as §1

[9] = biological target: Gal(b1-4)GalNAc(b1-3)[Fuc(a1-2)]Gal(b1-4)GlcNAc
Method in brief: as §1

[10] = biological target: Gal(b1-4)Glc
Method in brief: as §1

[11] = biological target: Gal(b1-4)Glc6S
Method in brief: as §1

[12] = biological target: Gal(b1-4)GlcNAc
Method in brief: as §1

[13] = biological target: Gal(b1-4)GlcNAc(a1-6)Gal(b1-4)GlcNAc
Method in brief: as §1

[14] = biological target: Gal(b1-4)GlcNAc(b1-2)Man
Method in brief: as §1

[15] = biological target: Gal(b1-4)GlcNAc(b1-2)Man(a1-3)Man(b1-4)GlcNAc(b1-4)GlcNAc
Method in brief: as §1

[16] = biological target: Gal(b1-4)GlcNAc(b1-2)Man(a1-3)[Gal(b1-4)GlcNAc(b1-2)Man(a1-6)]Man(b1-4)GlcNAc(b1-4)GlcNAc
Method in brief: as §1

[17] = biological target: Gal(b1-4)GlcNAc(b1-2)Man(a1-3)[Gal(b1-4)GlcNAc(b1-2)Man(a1-6)]Man(b1-4)GlcNAc(b1-4)[Fuc(a1-6)]GlcNAc
Method in brief: as §1

[18] = biological target: Gal(b1-4)GlcNAc(b1-2)Man(a1-3)[Gal(b1-4)GlcNAc(b1-2)Man(a1-6)][Gal(b1-4)GlcNAc(b1-4)]Man(b1-4)GlcNAc(b1-4)[Fuc(a1-6)]GlcNAc
Method in brief: as §1

[19] = biological target: Gal(b1-4)GlcNAc(b1-2)Man(a1-3)[Gal(b1-4)GlcNAc(b1-2)Man(a1-6)][GlcNAc(b1-4)]Man(b1-4)GlcNAc(b1-4)[Fuc(a1-6)]GlcNAc
Method in brief: as §1

[20] = biological target: Gal(b1-4)GlcNAc(b1-2)Man(a1-3)[GlcNAc(b1-2)Man(a1-6)]Man(b1-4)GlcNAc(b1-4)GlcNAc
Method in brief: as §1

[21] = biological target: Gal(b1-4)GlcNAc(b1-2)Man(a1-3)[GlcNAc(b1-4)][Gal(b1-4)GlcNAc(b1-2)Man(a1-6)]Man(b1-4)GlcNAc(b1-4)GlcNAc
Method in brief: as §1

[22] = biological target: Gal(b1-4)GlcNAc(b1-2)Man(a1-3)[Man(a1-6)]Man(b1-4)GlcNAc(b1-4)GlcNAc
Method in brief: as §1

[23] = biological target: Gal(b1-4)GlcNAc(b1-2)Man(a1-6)Man(b1-4)GlcNAc(b1-4)GlcNAc
Method in brief: as §1

B1: Clec2 (Mus musculus), Q9JL99 (protein)
chain: MQDEDGYITLNIKPRKQALSSAEPASSWWRVMALVLLISSMGLVVGLVALGIMSVTQQKYLLAEKENLSATLQQLAKKFCQELIRQSEIKTKSTFEHKCSPCATKWRYHGDSCYGFFRRNLTWEESKQYCTEQNATLVKTASQSTLDYIAERITSVRWIGLSRQNSKKDWMWEDSSVLRKNGINLSGNTEENMNCAYLHNGKIHPASCKERHYLICERNAGMTRVDQLL
glycan array binding signal (z-score) [1]: -0.61 | glycan array binding signal (z-score) [2]: -0.199 | glycan array binding signal (z-score) [3]: -0.574 | glycan array binding signal (z-score) [4]: 0.483 | glycan array binding signal (z-score) [5]: 0.005 | glycan array binding signal (z-score) [6]: -0.745 | glycan array binding signal (z-score) [7]: 0.224 | glycan array binding signal (z-score) [8]: -0.859 | glycan array binding signal (z-score) [9]: -0.849 | glycan array binding signal (z-score) [10]: 0.165 | glycan array binding signal (z-score) [11]: 1.76 | glycan array binding signal (z-score) [12]: -0.415 | glycan array binding signal (z-score) [13]: -0.921 | glycan array binding signal (z-score) [14]: 0.756 | glycan array binding signal (z-score) [15]: -0.472 | glycan array binding signal (z-score) [16]: -0.795 | glycan array binding signal (z-score) [17]: -0.497 | glycan array binding signal (z-score) [18]: -0.771 | glycan array binding signal (z-score) [19]: -0.989 | glycan array binding signal (z-score) [20]: -0.6 | glycan array binding signal (z-score) [21]: -0.464 | glycan array binding signal (z-score) [22]: -0.66 | glycan array binding signal (z-score) [23]: -0.597
